Measured values published in PubChem BioAssay AID2100 (National Center for Advancing Translational Sciences (NCATS), 2009).
The whole screen tested about 300,000 compounds, of which about 1,200 (0.4%) were called active. This list was built around the results that the source calls inconclusive (neither active nor inactive); the mix of calls is not that of the screen. Calls follow the shape of the dose curve; as a rule, active = well fitted inhibition curve with a large enough effect; inconclusive = small, poorly fitted or top-dose-only effect, or another doubt; inactive = no such curve, though single readings can be large or run the other way. A potency beside an inconclusive call is a rough fit, not a confirmed value.

target: Lysosomal alpha-glucosidase (Homo sapiens) (UniProt P10253); assay: qHTS Assay for Inhibitors and Activators of Human alpha-Glucosidase Cleavage of Glycogen; settings: recombinant GAA, glycogen substrate, Amplex Red glucose oxidase fluorescence; activity change, negative = inhibition: at 76.4 µM (top of the series) unless noted;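 as to activity change, negative = inhibition: 0% = full enzyme reaction and -100% = no-enzyme basal signal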
In short: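 qHTS, 1536-well; enzyme 4 nM final; cpd up to 77 uM; substrate bovine liver glycogen 30 ug; 50 mM citrate/phosphate pH 5.0, 0.01% Tween-20; 37 C, 40 min; Amplex Red detection 45 min RT; Hill fit → AC50.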
Potency is read from the fitted curve at half-maximal effect.

Compound | Potency | activity change, negative = inhibition
COc1ccccc1N1CCN(C(=S)Nc2ccc3nc(N4CCOCC4)cc(C)c3c2)CC1 | inconclusive: 11.2 µM [inhibitor, partial curve, poor fit] | 
O=C1/C(=C/c2ccc(O)c(O)c2)SC(=S)N1Nc1ccccc1 | inconclusive: 4.47 µM [inhibitor, full curve] | 
CCNc1nc(NCC)nc(N/N=C/c2ccc(N(C)C)cc2)n1 | inconclusive: 28.2 µM [inhibitor, partial curve] | 
COc1cc(N=Nc2ccccc2C(=O)O)ccc1O | inconclusive: 24.9 µM [inhibitor, single point] | 
COc1ccc(N/C=C2/Sc3ccccc3NC2=O)cc1 | active: 19.8 µM | 
COc1ccc(-c2c3c(=O)n(C)c(=O)n(C)c3c3c(-c4ccc(C)cc4)nc4ccccc4n23)cc1 | inactive | 
CCOC(=O)/C(=N\Nc1ccc(Br)cc1)N1CC(C)OC(C)C1 (configuration not stated) | inconclusive: 28.2 µM [inhibitor, partial curve] | 
CCCCOc1ccc(CNn2c(C)nc3ccccc3c2=O)cc1 | inconclusive: 5.01 µM [inhibitor, single point] | 
CN(C)CCCNc1oc(/C=C/c2ccc(F)cc2)nc1C#N | inconclusive: 20 µM [inhibitor, partial curve] | 
CN=C1S/C(=C\c2ccc(Cl)cc2)C(=O)N1C | inconclusive: 11.2 µM [inhibitor, single point] | 
COc1ccc(-c2noc(-c3ccc(NCc4ccccc4OC)c([N+](=O)[O-])c3)n2)cc1 | inconclusive: 11.2 µM [inhibitor, single point] | 
Cc1nc(NCc2ccc(S(N)(=O)=O)cc2)c2c(C)c(C)sc2n1 | inconclusive: 25.1 µM [inhibitor, single point] | 
COC(=O)c1ccc(C)c(NC(=O)CCSc2ccc(Cl)cc2)c1 |  | inconclusive: 34.9% [activator]
CCOc1ccc(-c2cnc(NCc3ccc(OC)cc3OC)n2C)cc1 | inconclusive: 35.5 µM [inhibitor, single point] | 
O=C(NCc1ccc(F)cc1)c1ccc(NC(=O)N2CC3CCCN3c3ccccc32)cc1 (configuration not stated) | active: 15.8 µM | 
COc1ccc(Cl)cc1NC(=O)Cc1coc2c(C)c(C)ccc12 | inactive | 
O=C(NC(=S)N1CCCCC1)c1csc([N+](=O)[O-])c1 | inconclusive: 39.8 µM [inhibitor, single point] | 
Cc1cc(O)c(/C=N/Nc2ccccc2)c(=O)o1 | inconclusive: 17.8 µM [inhibitor, partial curve] | 
CC1(C)Cc2ccccc2C(NN=C2CCCC2)=N1 | inconclusive: 50.1 µM [inhibitor, single point] | 
Cc1c(NC2=C(Cl)C(=O)N(c3ccccc3Cl)C2=O)c(=O)n(-c2ccccc2)n1C | inactive | 
O=C(O)c1ccc(N/N=C/c2cccc3nccnc23)cc1 | inconclusive: 31.6 µM [inhibitor, single point] | 
COCCOC(=O)C1=C(C)OC(N)=C(C#N)C1c1cc2cccc(C)c2nc1Cl (configuration not stated) | inconclusive: 35.2 µM [inhibitor, single point] | 
COc1ccc(O)c(N)c1 | inconclusive: 39.5 µM [inhibitor, single point] | 
CCOC(=O)C1=C(C(F)(F)F)Nc2ncnn2C1c1cc(OC)ccc1OC (configuration not stated) | inconclusive: 50.1 µM [inhibitor, single point] | 

Compound | Potency | activity change, negative = inhibition
O=c1nc(N/N=C/c2c[nH]c3ccccc23)cn[nH]1 | inactive | 
O=C(Nc1n[nH]c(=S)s1)c1ccco1 | inconclusive: 28.2 µM [inhibitor, single point] | 
CN=c1scc(C)n1/N=C/c1ccc(O)c(O)c1O | active: 11.2 µM | 
COc1cc(/C=N/Nc2nc3ccccc3[nH]2)cc(Br)c1OCC(=O)N(C)C | inconclusive: 11.2 µM [inhibitor, single point] | 
Cc1ccc(-n2cc3c(c2-c2ccccc2Br)c(=O)n(C)c(=O)n3C)cc1N | inactive | 
O=C(NCC(c1cccnc1)N1CCc2ccccc21)c1ccc(F)c(F)c1 (configuration not stated) | inactive | 
Cc1ccc2oc(=O)c3cnn(CC(=O)N(CCC(C)C)Cc4ccco4)c3c2c1 | inconclusive: 1120 µM [inhibitor, partial curve, poor fit] | 
CCN(C(=O)C1CCCN(c2ncnc3c2nc2n3CCCCC2)C1)c1cccc(C)c1 (configuration not stated) | inactive | 
Cc1ccc(-c2nc3n(n2)Cc2ccccc2-3)cc1 | inactive | 
O=C1CC(c2ccc(F)cc2)c2c(c3ccccc3[nH]c2=O)O1 (configuration not stated) | inactive | 
Cc1ccccc1C(=O)NNc1ccc(-c2csnn2)cc1 | active: 15.7 µM | 
O=C(O)c1ccccc1C(=O)Nc1ccccc1[N+](=O)[O-] | inactive | 
COc1ccc(OC)c(NC(=O)CSCC(=O)O)c1 | inconclusive: 25.1 µM [inhibitor, single point] | 
Cc1c(Nc2nc(-c3cccc([N+](=O)[O-])c3)cs2)c(=O)n(-c2ccccc2)n1C | inconclusive: 39.5 µM [inhibitor, single point] | 
O=S(=O)(c1ccc(-c2csc(=Nc3ccc(OC(F)(F)Cl)cc3)n2CCCO)cc1)N1CCCC1 | inactive | 
CCN(CCCNC(=O)CN(C)S(=O)(=O)c1cccc2nsnc12)c1ccccc1 | inconclusive: 35.2 µM [inhibitor, partial curve] | 
C/C(=N\N1CCN(c2ccc(Cl)cc2)CC1)c1cccc([N+](=O)[O-])c1 | inconclusive: 50.1 µM [inhibitor, single point] | 
Oc1ccc(/C=N/NC(=S)NCc2ccco2)cc1 | active: 28.2 µM | 
CC1Oc2ccccc2C=C1/C=N/Nc1ccc(C(=O)O)cc1 (configuration not stated) | inconclusive: 35.5 µM [inhibitor, partial curve] | 
COC(=O)c1cccc(NC(=S)Nc2cc(Cl)ccc2OC)c1 | inconclusive: 39.5 µM [inhibitor, single point] | 
CCOc1ccc(OCC)c(NC(=O)CCc2nc3cccnc3n2Cc2cccs2)c1 | inconclusive: 11.2 µM [inhibitor, partial curve] | 
O=C(OCCNc1nc(-c2ccccc2)nc2ccccc12)c1ccncc1 | inactive | 
Cc1ccc(NC(=O)CSc2nc3ccc(NC(=O)COc4ccc(C)cc4)cc3s2)cc1 | inactive | 
Cc1cc(C)n2c(Nc3ccc4c(c3)OCCO4)c(-c3ccc(C)o3)nc2n1 | inactive | 

Compound | Potency | activity change, negative = inhibition
O=S(=O)(c1ccc(NC(=S)N/N=C/c2ccc(O)c(O)c2)cc1)N1CCOCC1 | active: 25.1 µM | 
Cn1nnc(NC(=S)NC(=O)Cc2ccccc2)n1 | inconclusive: 31.6 µM [inhibitor, partial curve] | 
O=S(=O)(Nc1cc(Sc2ncn[nH]2)c(O)c2ccccc12)c1ccccc1 | inconclusive: 17.6 µM [inhibitor, partial curve] | 
COc1ccccc1N1CCN(/N=C/c2cccc(O)c2)CC1 | active: 9.92 µM | 
CN(C)CCc1cc2c(c3c1ccc1ccccc13)OCO2 | inactive | 
C/C(CC(=O)Nc1ccc([N+](=O)[O-])cc1)=N\NC(=O)c1ccccc1O | inconclusive: 17.8 µM [inhibitor, partial curve] | 
Cc1ccc(-c2nc3ncccn3c2NC2CCCC2)o1 | active: 14 µM | 
CN(C)c1ccc(CNc2ccc3c(c2)ncn3C(C)(C)C)cc1 | inconclusive: 35.5 µM [inhibitor, partial curve] | 
Cc1cc(NC(=O)CSc2nc3c(cc2C#N)CCC3)no1 | inactive | 
COc1ccc(O)c(CN2CCCC(N3CCN(c4ccccc4OC)CC3)C2)c1 (configuration not stated) | inconclusive: 44.7 µM [inhibitor, single point] | 
Cc1ccc(NC(=S)NNc2ccc([N+](=O)[O-])cc2S(=O)(=O)Nc2ccccc2C(=O)O)cc1C | active: 22.4 µM | 
Cc1c(C(=O)NCCN(C)C)oc2ccc(S(=O)(=O)N3CCCC3)cc12 | inconclusive: 7.94 µM [inhibitor, single point] | 
C/C(=N/NC(N)=S)c1cc2ccc(O)cc2oc1=O | inconclusive: 44.7 µM [inhibitor, single point] | 
O=C(NNc1nc(-c2ccc(F)cc2)cs1)c1ccccc1 | inconclusive: 12.6 µM [inhibitor, partial curve] | 
COC(=O)c1cnn2c1C(=O)N(Cc1cccs1)CC2 | inconclusive: 39.8 µM [inhibitor, single point] | 
Cc1nn(-c2ccccc2)c(Cl)c1/C=N/Nc1nc2ccccc2[nH]1 | inconclusive: 5.62 µM [inhibitor, partial curve] | 
Cc1ccc2cc(C3C(C#N)=C(N)Oc4c3ccc3cccnc43)c(=O)[nH]c2c1 (configuration not stated) | inconclusive: 14 µM [activator, partial curve] | 
CC(C)(C)c1ccc(/C=N/Nc2cccc(C(=O)O)c2)cc1 | inconclusive: 14.1 µM [inhibitor, partial curve] | 
CCc1cc(=S)n2c([nH]c3ccccc32)c1C#N | inconclusive: 11.2 µM [inhibitor, full curve] | 
COc1cc(/C=N/NC(=O)Cn2cnc3c2c(=O)n(C)c(=O)n3C)ccc1O | inconclusive: 24.9 µM [inhibitor, partial curve] | 
ON1C(c2ccc(Cl)cc2Cl)N(O)[C@H]2CCCC[C@H]21 (some centres not stated) | inconclusive: 11.1 µM [inhibitor, partial curve] | 
Fc1ccc(C2=Nc3cccc4cccc(c34)N2)cc1 | inconclusive: 35.5 µM [activator, single point] | 
Clc1nc(CN2CCCCC2)nc2sc3c(c12)CCCC3 | inconclusive: 44.7 µM [inhibitor, single point] | 
Cc1ccn2c(NCc3ccc4c(c3)OCO4)c(-c3ccc(O)cc3)nc2c1 | inactive | 
